Measured values taken from the supplement of paper PMC8728848.
This is one part of the list.

What was measured:
Assay in all cases: glycan array binding signal (z-score within array); higher = stronger binding
Conditions in all cases: glycan notation: IUPAC condensed, linker removed
[1] = target: Neu5Ac(a2-3)Gal(b1-4)GlcNAc(b1-3)Gal(b1-3)GlcNAc
How it was run: (§1)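 Columns mapping to the same glycan were averaged after glycan names were converted to IUPAC-condensed notation. The data come from 3228 arrays in the Consortium for Functional Glycomics database, limited to those with an available protein sequence. Binding is reported as a within-array Z-score averaged across arrays of one protein sequence and across linkers.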

[2] = target: Neu5Ac(a2-3)Gal(b1-4)GlcNAc(b1-3)Gal(b1-4)GlcNAc
How it was run: as §1

[3] = target: Neu5Ac(a2-3)Gal(b1-4)GlcNAc(b1-3)Gal(b1-4)GlcNAc(b1-3)Gal(b1-4)GlcNAc
How it was run: as §1

[4] = target: Neu5Ac(a2-3)Gal(b1-4)GlcNAc(b1-3)Gal(b1-4)[Fuc(a1-3)]GlcNAc
How it was run: as §1

[5] = target: Neu5Ac(a2-3)Gal(b1-4)GlcNAc(b1-3)GalNAc
How it was run: as §1

[6] = target: Neu5Ac(a2-3)Gal(b1-4)GlcNAc(b1-6)[Gal(b1-3)]GalNAc
How it was run: as §1

[7] = target: Neu5Ac(a2-3)Gal(b1-4)GlcNAc(b1-6)[Neu5Ac(a2-3)Gal(b1-3)]GalNAc
How it was run: as §1

[8] = target: Neu5Ac(a2-3)Gal(b1-4)GlcNAc6S
How it was run: as §1

[9] = target: Neu5Ac(a2-3)Gal(b1-4)[Fuc(a1-3)]GlcNAc
How it was run: as §1

[10] = target: Neu5Ac(a2-3)Gal(b1-4)[Fuc(a1-3)]GlcNAc(b1-3)Gal
How it was run: as §1

[11] = target: Neu5Ac(a2-3)Gal(b1-4)[Fuc(a1-3)]GlcNAc(b1-3)Gal(b1-4)GlcNAc
How it was run: as §1

[12] = target: Neu5Ac(a2-3)Gal(b1-4)[Fuc(a1-3)]GlcNAc(b1-3)Gal(b1-4)[Fuc(a1-3)]GlcNAc(b1-3)Gal(b1-4)[Fuc(a1-3)]GlcNAc
How it was run: as §1

[13] = target: Neu5Ac(a2-3)Gal(b1-4)[Fuc(a1-3)]GlcNAc(b1-3)GalNAc
How it was run: as §1

[14] = target: Neu5Ac(a2-3)Gal(b1-4)[Fuc(a1-3)]GlcNAc(b1-6)[Gal(b1-3)]GalNAc
How it was run: as §1

[15] = target: Neu5Ac(a2-3)Gal(b1-4)[Fuc(a1-3)]GlcNAc(b1-6)[Neu5Ac(a2-3)Gal(b1-3)]GalNAc
How it was run: as §1

[16] = target: Neu5Ac(a2-3)Gal(b1-4)[Fuc(a1-3)]GlcNAc6S
How it was run: as §1

[17] = target: Neu5Ac(a2-3)Gal6S(b1-4)GlcNAc
How it was run: as §1

[18] = target: Neu5Ac(a2-3)Gal6S(b1-4)[Fuc(a1-3)]GlcNAc
How it was run: as §1

Neu5Ac(a2-3)GalNAc = target: Neu5Ac(a2-3)GalNAc
How it was run: as §1

[19] = target: Neu5Ac(a2-3)GalNAc(b1-4)GlcNAc
How it was run: as §1

[20] = target: Neu5Ac(a2-3)[GalNAc(b1-4)]Gal(b1-4)Glc
How it was run: as §1

[21] = target: Neu5Ac(a2-3)[GalNAc(b1-4)]Gal(b1-4)GlcNAc
How it was run: as §1

[22] = target: Neu5Ac(a2-3)[GalNAc(b1-4)]Gal(b1-4)GlcNAc(b1-3)GalNAc
How it was run: as §1

[23] = target: Neu5Ac(a2-3)[Neu5Ac(a2-6)]GalNAc
How it was run: as §1

Neu5Ac(a2-6)Gal = target: Neu5Ac(a2-6)Gal
How it was run: as §1

[24] = target: Neu5Ac(a2-6)Gal(b1-3)GlcNAc(b1-3)[Gal(b1-4)GlcNAc(b1-6)]Gal(b1-4)Glc
How it was run: as §1

Neu5Ac(a2-6)Gal(b1-4)Glc = target: Neu5Ac(a2-6)Gal(b1-4)Glc
How it was run: as §1

[25] = target: Neu5Ac(a2-6)Gal(b1-4)GlcNAc
How it was run: as §1

[26] = target: Neu5Ac(a2-6)Gal(b1-4)GlcNAc(b1-2)Man(a1-3)Man(b1-4)GlcNAc(b1-4)GlcNAc
How it was run: as §1

[27] = target: Neu5Ac(a2-6)Gal(b1-4)GlcNAc(b1-2)Man(a1-3)[Gal(b1-4)GlcNAc(b1-2)Man(a1-6)]Man(b1-4)GlcNAc(b1-4)GlcNAc
How it was run: as §1

[28] = target: Neu5Ac(a2-6)Gal(b1-4)GlcNAc(b1-2)Man(a1-3)[GlcNAc(b1-2)Man(a1-6)]Man(b1-4)GlcNAc(b1-4)GlcNAc
How it was run: as §1

[29] = target: Neu5Ac(a2-6)Gal(b1-4)GlcNAc(b1-2)Man(a1-3)[GlcNAc(b1-2)Man(b1-4)GlcNAc(b1-2)Man(a1-6)]Man(b1-4)GlcNAc(b1-4)GlcNAc
How it was run: as §1

[30] = target: Neu5Ac(a2-6)Gal(b1-4)GlcNAc(b1-2)Man(a1-3)[Man(a1-6)]Man(b1-4)GlcNAc(b1-4)GlcNAc
How it was run: as §1

[31] = target: Neu5Ac(a2-6)Gal(b1-4)GlcNAc(b1-2)Man(a1-3)[Neu5Ac(a2-6)Gal(b1-4)GlcNAc(b1-2)Man(a1-6)]Man(b1-4)GlcNAc(b1-4)GlcNAc
How it was run: as §1

[32] = target: Neu5Ac(a2-6)Gal(b1-4)GlcNAc(b1-2)Man(a1-6)Man(b1-4)GlcNAc(b1-4)GlcNAc
How it was run: as §1

[33] = target: Neu5Ac(a2-6)Gal(b1-4)GlcNAc(b1-2)Man(a1-6)[Gal(b1-4)GlcNAc(b1-2)Man(a1-3)]Man(b1-4)GlcNAc(b1-4)GlcNAc
How it was run: as §1

[34] = target: Neu5Ac(a2-6)Gal(b1-4)GlcNAc(b1-2)Man(a1-6)[GlcNAc(b1-2)Man(a1-3)]Man(b1-4)GlcNAc(b1-4)GlcNAc
How it was run: as §1

[35] = target: Neu5Ac(a2-6)Gal(b1-4)GlcNAc(b1-2)Man(a1-6)[Man(a1-3)]Man(b1-4)GlcNAc(b1-4)GlcNAc
How it was run: as §1

B1: LSectin (Mus musculus), Q8BNX1 (protein)
chain: MNTGEYNKLGSAIEEVSRGQLGRWECYKQRLFFLVLALLVATVLWALILSTLLSSASSKLRVLLSHQDLLRTNASEQKMTLSSLKDDIGACRNCCSVTKAQLQTTLAEFKDIQAKLMEQESILKELQERVTQDLAKASRDRENIRSELFQALEAVKRQNSSCEQCPPSWLPFQGSCYYFSETQATWDTAQSYCGGQGAHLVIVRGLNEQGFLSQHTRGRGYWLGLRAVRHLNKIQGYRWVDGASLNFSHWNSGEPNDSRGHEDCIMMLHSGLWNDAPCTNERDGWICEKRSSCY
glycan array binding signal (z-score) [1]: -0.186 | glycan array binding signal (z-score) [2]: -0.147 | glycan array binding signal (z-score) [3]: -0.185 | glycan array binding signal (z-score) [4]: -0.171 | glycan array binding signal (z-score) [5]: -0.191 | glycan array binding signal (z-score) [6]: -0.175 | glycan array binding signal (z-score) [7]: -0.193 | glycan array binding signal (z-score) [8]: -0.151 | glycan array binding signal (z-score) [9]: -0.154 | glycan array binding signal (z-score) [10]: -0.16 | glycan array binding signal (z-score) [11]: -0.159 | glycan array binding signal (z-score) [12]: -0.181 | glycan array binding signal (z-score) [13]: -0.154 | glycan array binding signal (z-score) [14]: -0.175 | glycan array binding signal (z-score) [15]: -0.181 | glycan array binding signal (z-score) [16]: -0.156 | glycan array binding signal (z-score) [17]: -0.172 | glycan array binding signal (z-score) [18]: -0.171 | glycan array binding signal (z-score) (Neu5Ac(a2-3)GalNAc): -0.168 | glycan array binding signal (z-score) [19]: -0.168 | glycan array binding signal (z-score) [20]: -0.177 | glycan array binding signal (z-score) [21]: -0.178 | glycan array binding signal (z-score) [22]: -0.194 | glycan array binding signal (z-score) [23]: -0.169 | glycan array binding signal (z-score) (Neu5Ac(a2-6)Gal): -0.118 | glycan array binding signal (z-score) [24]: -0.187 | glycan array binding signal (z-score) (Neu5Ac(a2-6)Gal(b1-4)Glc): -0.167 | glycan array binding signal (z-score) [25]: -0.155 | glycan array binding signal (z-score) [26]: -0.189 | glycan array binding signal (z-score) [27]: -0.173 | glycan array binding signal (z-score) [28]: 1.53 | glycan array binding signal (z-score) [29]: -0.184 | glycan array binding signal (z-score) [30]: -0.191 | glycan array binding signal (z-score) [31]: -0.176 | glycan array binding signal (z-score) [32]: -0.182 | glycan array binding signal (z-score) [33]: -0.153 | glycan array binding signal (z-score) [34]: 4.19 | glycan array binding signal (z-score) [35]: -0.143
